In PMC10668032:
The other results are listed elsewhere or left out. At the low end of the ranking the order means little.

Target: SIX1-Q177R homeodomain (UniProt Q15475)
Assay: universal protein binding microarray
Conditions: Universal all-10-mer PBM (8x60K, AMADID 030236), 300 nM GST-tagged protein, Alexa Fluor 488 anti-GST; buffer, salt, pH and temperature not stated; high values mean tight binding; most listed sequences are background and not binding sites; double strand, one strand shown

Sequence | binding signal
CGCGTTAA | -0.068 E-score
CTAGGGTA | 0.236 E-score
CGGATTAG | 0.0689 E-score
CTGGAATA | -0.0741 E-score
ATGTGTAA | 0.225 E-score
CCACAGAG | 0.0617 E-score
GATTCAGC | -0.0999 E-score
ACCATGCT | 0.151 E-score
CAATTTCG | 0.0106 E-score
ATGCAAGA | -0.25 E-score
CCGTAGAC | -0.127 E-score
GCTACGCC | -0.0804 E-score
GTAGGTCA | -0.072 E-score
GGTCTGTA | -0.0178 E-score
ACAACTGC | -0.201 E-score
TAGGTTCA | -0.0045 E-score
TGCTCACA | 0.0192 E-score
AACGCCCT | -0.16 E-score
AATCCTGT | -0.0147 E-score
CGAGGTAA | -0.063 E-score
CCGTTTAC | -0.0007 E-score
AACCTCGA | -0.182 E-score
AGCATTCA | -0.122 E-score
CTGGTAAG | 0.0214 E-score
CCGAGCGC | 0.0632 E-score

Sequence | binding signal
CCCAATAG | -0.0482 E-score
CCAGCGAA | -0.0865 E-score
GGGAGCAA | -0.25 E-score
ACAGAAAA | -0.204 E-score
GCCTCCTA | -0.0638 E-score
ATGTGACA | 0.0732 E-score
ACGCCCAC | 0.208 E-score
CATAAGGC | -0.12 E-score
CCAGTCAG | -0.199 E-score
CACCTGCA | 0.213 E-score
AAGTCGTA | -0.196 E-score
AGTGCAGG | 0.084 E-score
GGATAAGA | -0.118 E-score
GAGTGACA | 0.242 E-score
GAACCAAC | 0.00366 E-score
GGTGACTA | 0.0602 E-score
CCAAGCCC | 0.155 E-score
CGAATCAA | -0.1 E-score
ACTTTGAG | 0.0749 E-score
ACTGCCTC | -0.0769 E-score
TAAAAGAA | -0.058 E-score
AACTAACT | -0.21 E-score
AACATGGG | 0.0263 E-score
AGTCCCAT | -0.308 E-score
CGAAGAGA | -0.119 E-score

Sequence | binding signal
AATCAGTA | 0.0529 E-score
AAGTACCA | -0.0836 E-score
GAACTCTA | 0.103 E-score
AGGCCTAC | -0.139 E-score
CGAGGCTA | -0.0243 E-score
GAATCGAA | 0.00791 E-score
CTGTGACC | 0.00507 E-score
AGACTTTG | -0.294 E-score
CACAGCAA | -0.0185 E-score
CGTGGGTC | 0.0452 E-score
ACAGATCC | -0.0792 E-score
ATGCACCC | 0.19 E-score
ACTACAGA | -0.117 E-score
CCATGTAG | -0.17 E-score
AAATATCG | -0.26 E-score
ATCAGGCA | -0.266 E-score
ATACAGAG | 0.0455 E-score
GAATCATA | 0.0819 E-score
TATCGAAA | -0.0429 E-score
AGCGAGCT | -0.174 E-score
AAGGTTCC | -0.0376 E-score
CTTAGCAA | -0.186 E-score
GATAGTAA | -0.093 E-score
GATCATAA | 0.0569 E-score
AATATTGA | -0.133 E-score

Sequence | binding signal
CCCGATGC | 0.0856 E-score
GCAACCCC | 0.184 E-score
AACGTCCT | -0.0587 E-score
ATGCATTA | 0.00219 E-score
AAGGGTAT | 0.262 E-score
AGCACTCA | -0.0346 E-score
TCATGACA | 0.138 E-score
GGCGAAAA | -0.106 E-score
CTGCCTCA | -0.0607 E-score
CGCGATAC | 0.254 E-score
CTATAACA | 0.228 E-score
AGGACCAT | -0.0556 E-score
ACGCAGCT | -0.108 E-score
CGGGTAGC | 0.00485 E-score
GGCAGAAC | -0.11 E-score
CAAGCCGC | -0.147 E-score
ACGCTTTA | -0.0641 E-score
CTCCTCGC | -0.00635 E-score
ACTGAAAC | 0.0271 E-score
CTTCAACC | -0.0183 E-score
ATAGGGAG | -0.06 E-score
CCTCGGTA | 0.00078 E-score
TCCGACCA | 0.148 E-score
CCACAGGG | -0.0462 E-score
GCCCATAA | -0.0742 E-score

Sequence | binding signal
ACTAATGA | -0.0261 E-score
CAATGCGG | 0.119 E-score
AGAGTTAC | 0.146 E-score
GCGGGGCA | 0.0306 E-score
GCACCTCA | 0.162 E-score
CCCAGACG | -0.098 E-score
ATGTAGTC | -0.257 E-score
GATAGGGA | -0.103 E-score
AGTGACGG | -0.0528 E-score
AACCTCTC | -0.121 E-score
CCAAGGCA | -0.0215 E-score
TACTGCCA | -0.125 E-score
CATCTACC | -0.0761 E-score
GGAAACTA | -0.0904 E-score
AATGGTAC | 0.0438 E-score
AGCGTATA | -0.168 E-score
AAATGTGA | -0.039 E-score
GTGTTAAC | 0.415 E-score
CGCACCGC | 0.209 E-score
AGTTATCG | -0.0301 E-score
CGAGCCCC | 0.0592 E-score
CACCGAGA | 0.276 E-score
AGGCTTTG | -0.185 E-score
GCTTTGAC | 0.111 E-score
AAGAACCG | -0.0614 E-score

Sequence | binding signal
TATTGGAA | -0.173 E-score
GCTCCGTA | -0.0898 E-score
ACCGGCTG | 0.174 E-score
AGAACCCA | -0.165 E-score
CCCAAGCA | 0.00966 E-score
GGCGTACA | 0.283 E-score
ACTCAGAT | -0.0982 E-score
ACCGCTAT | 0.0115 E-score
AATGATAG | -0.211 E-score
AAAGGAAC | -0.0214 E-score
CAAAAAGG | -0.204 E-score
CGCCTGAA | -0.0796 E-score
ACGGTACG | 0.101 E-score
ACGTTCGG | -0.158 E-score
TAGTAGGA | 0.0355 E-score
AACCGTAT | -0.141 E-score
ATAAGCCG | -0.217 E-score
CAATAGGG | 0.2 E-score
GCGAAGAA | -0.176 E-score
CCAGATCA | 0.103 E-score
ATCATCCC | -0.103 E-score
CCGTACTA | 0.0634 E-score
AGTTTCGA | -0.125 E-score
CAGGCATG | -0.0944 E-score
ATGCGGTG | 0.295 E-score

Sequence | binding signal
ACTGTTCA | -0.196 E-score
ATGACTTC | -0.0562 E-score
CCGAAACC | 0.0721 E-score
AAAGAGGG | 0.0524 E-score
ACCGCACA | 0.232 E-score
AAACTGAG | -0.0216 E-score
CTCCCGAC | 0.153 E-score
TAACCAGA | 0.0951 E-score
ACCGTCGT | 0.0134 E-score
CATGCTAG | -0.0112 E-score
AACCATAT | -0.131 E-score
GCCAATGA | -0.185 E-score
ATCCTCTC | -0.0711 E-score
AACCACCA | -0.0577 E-score
ATTAGAGG | -0.0686 E-score
CACAGCTA | 0.177 E-score
CCTGGGTC | 0.102 E-score
AGGTCGTA | -0.0087 E-score
CGCCGGTA | -0.00709 E-score
CTGCGACC | -0.214 E-score
ACACGGCT | 0.398 E-score
AGTAGTTC | -0.0409 E-score
